Data reported in the supplement of paper PMC3334620.
The full ranking holds about 33,000 sequences; the median of “E-score (-0.5 to 0.5)” is about -0.013, and the highest 2% start at about 0.3. The list shows a part of the results.

These sequences were tested against T1, Msn1 (UniProt P22148) (assay: PBM E-score (8-mer binding enrichment) (E-score (-0.5 to 0.5)); higher = stronger / more preferred TF binding; most listed sequences are background and not binding sites). Conditions: protein concentration: 200 nM; construct: GST-full length.
T1 sequence: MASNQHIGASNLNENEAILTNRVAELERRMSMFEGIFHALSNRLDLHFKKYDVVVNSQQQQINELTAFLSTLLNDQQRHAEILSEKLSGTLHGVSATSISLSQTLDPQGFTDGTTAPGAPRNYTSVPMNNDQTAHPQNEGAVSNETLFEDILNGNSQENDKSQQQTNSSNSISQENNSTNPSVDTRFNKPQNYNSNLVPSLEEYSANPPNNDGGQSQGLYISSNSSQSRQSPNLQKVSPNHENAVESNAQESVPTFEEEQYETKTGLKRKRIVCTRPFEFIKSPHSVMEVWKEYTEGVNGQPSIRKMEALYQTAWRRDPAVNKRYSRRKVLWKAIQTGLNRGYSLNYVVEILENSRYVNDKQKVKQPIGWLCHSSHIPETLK
In short: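 For each ungapped eight-base word taken together with its reverse complement, the Universal PBM Analysis Suite assigned an E-score. Binding data came from GST-tagged yeast transcription factors, applied at about 100-200 nM, on universal all-10-mer Agilent arrays made double-stranded by primer extension. Fluorescent anti-GST marked bound protein, and scans were normalised with masliner.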

Sequence | PBM E-score
ACGAAACA | 0.135
AATCTGCC | 0.0156
GTCTGCCA | -0.0498
GTACCCTA | -0.0375
AACGTCTT | 0.116
GCATCAGA | 0.00462
TATAAACA | 0.123
CGCTGACG | -0.24
TATGTGCA | -0.0908
CAGTTTGA | 0.107
GCCGCTCC | -0.263
ACACCTGT | 0.105
CGCTGCAA | -0.114
AAGGCGCT | -0.124
CCCCGGAG | -0.133
GTCACAAA | 0.278
AATTCTCT | -0.229
CACTGACG | -0.0351
GATAATTA | 0.179
CGCTCAAA | 0.0393
CCGTTCTC | -0.0918
AACTGCTG | -0.272

Sequence | PBM E-score
AGAGGGTA | -0.167
AAATAGGA | 0.253
CGCAGCCG | -0.203
ATCCAATA | 0.0305
AGCTACCG | -0.212
AGTGTACG | 0.0603
TAAGCGGA | -0.0513
CGTTAGCC | -0.0321
ACGCCACT | -0.167
CAGAACTA | -0.00437
CCCAACCC | -0.072
ACTGGAGC | -0.292
CGTCGTAC | 0.0913
GGCACGAA | 0.0773
CAGATCTG | -0.187
AATTAAGT | 0.168
AATTCAGA | 0.264
CGACAAAC | 0.36
CACGGGGG | -0.0556
TGACCTCA | -0.018
CAATGCTG | -0.142
GGAGTACA | 0.0562

Sequence | PBM E-score
CTTGGCAA | -0.0415
CAAAAGCG | 0.146
GGAATTCA | 0.0953
ACAAAACT | 0.291
AATCTAGG | 0.0743
AGCGTGTA | -0.0217
ACAGTGTG | -0.0998
GAATAGAC | 0.103
GTTGATCA | 0.0145
CCAAAAGG | -0.112
CCTCAATC | 0.053
ACATAATA | 0.259
GTGGGTGA | 0.00965
ACTGATGA | 0.095
GAAACCGA | -0.0428
CATCGGAG | -0.0859
CTGATCAA | -0.151
CTGCAAGC | -0.17
CCAGCAGA | 0.0113
ACATCGGC | 0.156
GCATTCAC | -0.0831
ACAATAGT | 0.204

Sequence | PBM E-score
AAGAATAA | 0.0437
GCAAAGAC | 0.0622
AACAGACG | 0.0017
AAACTTCG | -0.175
CCAGACGA | 0.0196
ATCTGGCA | -0.0334
ACGGCAAG | -0.0961
ACTTGGAA | -0.0213
AATGCCAC | -0.21
AAGGAGCT | -0.203
CTACATGC | 0.0071
GTCGTATA | 0.0804
AAGAATAG | 0.048
AATGGAAC | 0.156
ACCAGAGC | -0.124
AACTCAAG | 0.0432
CGAAAGCG | 0.0854
ACTTGGCG | -0.102
GCGACCCC | -0.371
AGTTGGTA | 0.123
AGGGCTCC | -0.321
GGGACATA | 0.488

Sequence | PBM E-score
ATCTCATG | 0.129
CCTTGTCG | 0.0372
CAACGTGC | -0.103
ATATAGCG | -0.101
AGCACCAT | -0.184
CTCCGTCC | -0.221
AGCTCTAT | 0.00834
AGGTAAAC | 0.172
CATATCCG | 0.0402
GAATCCAC | 0.0116
CGTGCAAG | -0.00022
AGCACCCG | -0.156
GCGGCTCC | -0.285
CGCTTAGC | -0.191
ACGAATAT | 0.176
CCGTGGCA | 0.0076
GGATCACC | -0.0861
CTTAATTC | 0.147
GACAGCGA | -0.0599
GGAATCCC | -0.209
ACCTATTG | -0.0863
